According to patent US10494602B1, “Functional astrocytes and cortical neurons from induced pluripotent stem cells and methods of use thereof” (The Board of Trustees of the Leland Stanford Junior …, priority 2015, dated 2019):

Tested on: spontaneous synaptic activity (EPSCs) of hCS neurons
Conditions: NBQX (25 μM) and D-AP5 (50 μM) together; at -70 mV; n=11 cells, P=0.001

NC(CCCP(=O)(O)O)C(=O)O [D-AP5]
frequency of EPSCs: abolished

NS(=O)(=O)c1cccc2c1c([N+](=O)[O-])cc1nc(O)c(O)nc12 [NBQX]
frequency of EPSCs: abolished
